# The full ranking holds about 4,500 sequences; the median of “median log2 fold change of GCK-ALFA target abundance (FLAG IP / Myc IP barcode read proportion)” is about 0.078, and the lowest 2% start at about -0.6. The list shows a part of the results.
# B1: GBRAP_52_6240 (protein)
# chain: MKEEMRKLAEEAYEKVKAGDEEGARKIFKELAETKNDEEIRIFIDELAKLAAKARKEDIDDVWRLTEIASEALEEAGKPDILVDDLEAKTAAALAKVEAK
# B2: GBRAP_139_3737 (protein)
# chain: SADQEKVAAAAAEAAKLKDDLEAVAEYLVKVVKEVDEETAAAITRAVMEVMAGLPVEKQLELRDLVLEKLEEAGVPEDKITVVEAELNGGLARIAYEQEL
# B3: GBRAP_96_7087 (protein)
# chain: MLEEVKKLVREAVAARDTDPEKYEALVKELNKYPAELIAKAMVELGLSDEEKVALARALFEDDPSKIGEYLEALIEYDDSSAVSRAAAAAIEIEAERERA
# B4: GBRAP_52_5899 (protein)
# chain: MEEKAKKLAEEVVEAIKAGDFEKAVELIVDALLNLSSEEVDIFARELRKLLEKTSLEEAERAVEAAEKASEIALEKGADEDDVTLVEDAAETALVLVELA
# B5: GBRAP_52_6188 (protein)
# chain: MREAIRARLRAIHALVRAGRLDEAAAAAAELVAALDEEELRLLVEVMAELTAEAPLADADAMFRTAEILAAAIEAAGKDEVLAEDLLAAVAAALHAKELA
# B6: GBRAP_128_3305 (protein)
# chain: MNEERLKEAEELAEKMVEADVEEAAELTREIIELMATATEEERERIAEIMEEKFEELDAEKLDAVADVLREQIPKLDPLVAREVAGMEVEALNRAEEKEE
# B7: GBRAP_35_5624 (protein)
# chain: DVNKEIADAMVAVLEDTLLAVDTVPAETFLDTAIRVAEAGLEVAKELKEDKENAERILDAVERLLDAALERARRTGAPEEHLERLERLREEARELRKELK
# B8: GBRAP_184_5068 (protein)
# chain: KTIYETLEVRDLEEARAKVAALAERLKDAKGDLVVHVEMPEADREIIRAVLAGLKAMLDAGYVTSATVGFDAELTEELADFAIEEADRAGVNIVLALSDE
# B9: GBRAP_11_2703 (protein)
# chain: KKEELKKAAELAEKLAEVIEKLIEEGVDNEELRAEAEKLIEELTKLTKKYGDKALQKLAEIIKELWEKALKDPENAVEYLKELLAAARVLAGQYLLEIEE
# B10: GBRAP_52_6273 (protein)
# chain: MEEEAKKLAEEALDVVLNKSKEEIKAFAKKLVAENSQELIALTLEIVVEKAKELNLEEIEKLLDFMLILEDELEKAGKDPLPAEDAAARLAGLALEKRAE
# B11: GBRAP_160_4572 (protein)
# chain: SEELEKLIKEIRELVEEAVEFIEGQSFEQRLAVVRVTVGDILLELEENPEVSEEVEEKADEIGDELIETIEANPELTAEEIKELLRKAAEEIIKLIKEEA
# B12: GBRAP_53_6392 (protein)
# chain: KEEEIKELVEKLEKLIEELEKADEEEAIKLAKEARKVLVELAKLGLPEEELVKLVRRFAEAASKREELRPVLIELIKDLAALGREDAAAEAAEVLTEELE
# B13: GBRAP_184_5093 (protein)
# chain: KTLERKIEAKNVEEAKKKLEEVIKEAEEKKANLNVLVDVEGLNVEDAIELIEMVGKAKKEGKVKDATIGFTEEFTEEEVDKIVKKADEEGVKVVLPLKEE
# B14: GBRAP_125_3138 (protein)
# chain: KREALIELARALMEAAGFSEEEIAEALELARASDPVQTIVAILLAAGFEEAAELWEKVGPKLTEEEAKELTELARELRDAPREEFEERLTEKLKELLEKI
# B15: GBRAP_11_2793 (protein)
# chain: KKELLKKLAEELRKAAEALKALIAAGLKDEEGWKKARELLKRAEELAREAGDEDTAELLEIALEDLEKAKADPENAQEYLNNALAAVRVAEGLTLLRIEE
# B16: GBRAP_117_2575 (protein)
# chain: HMTKEEVKEKVRETVKEVIERLKEARKLSPEEREKVLKELRERMTKVVEEALKVLSEEEVLEIVEEALLEADAETYFEAESIVLDALNEVRERRKKEAEE
# B17: GBRAP_52_5990 (protein)
# chain: MEEEAREVAERALALRLEGREEEARALLEEVVETKSPEFIRLVAEELARLARTATPEERDAIVDVAIDLEDIALEAGFDEAEADDGLARVAAAAHDALLA
# B18: GBRAP_14_3874 (protein)
# chain: KEKALEIAKEEIDEMAELLEEAIPEKAAEIAAMREKLLAAAEEFFTSEEDPEEAAEKLKAYAEKVVAEFAKGLSPEDAALARAIAGVELGDLLLEIDELL
# B19: GBRAP_184_5303 (protein)
# chain: AVRHVVIEAETAEEALAQLRAAAAAARAAGERLAVDLFLKNVSVEGFARVAALLAELRAEGVLAAATVHIENDKTEEEVDAFVAIADAAGLRLVLALPDE
# B20: GBRAP_160_4794 (protein)
# chain: SERIEKVAEIFREEAERALEMARGETVEERVAIFDVELGSAIMEAIEEGLLNDEEEDIAIEVRDELVEEVRRNPELTEEELRELARRKIEELRERLEELE
# B21: GBRAP_11_2794 (protein)
# chain: KKEKLKELAKVLEEAAAALEALIAAGPSDAAGWKKASKLLQEALKLAKEAGDEDTAELLKIAQEELAEAQADPANRQQHLQNALAAVRVALGLTLLAIEE
# B22: GBRAP_160_4861 (protein)
# chain: EEKLKRALEILEEARKEALAAIDEAPASQRAAVAEAYMGEAIMELIEEGLLNDELEEKLDEVRRELRARLLANADASVEEHKALVTEAFDRMKEIIKELM
# B23: GBRAP_52_5893 (protein)
# chain: MLEEAIEKLKEAIEAVKAGDEEKAKEILKEIVENFDEDTIIEAVEKLAEEILSKSLEEAKAFYETMEMLAEIWEEMGKDPEIASYIEAIAGAALYKVEQK
# B24: GBRAP_125_3115 (protein)
# chain: DEEQLLADLATIAKALGFDDDDIEEALRLARKFGLKQTLIAIMLAEGYEENAELADKLSEEEVKQAVKELAAYIKAHPDLTPEEVKKKLKEILEKLLAKS
# B25: GBRAP_53_6387 (protein)
# chain: MEEEIEKLKKEYRELLKKIEKADEEEAVKLGKEAVEILVELAKLGAPEEELEELTKEFAEQVKKHPELRPLALELAKRLYELGKENAAGILAETLVEELE
# B26: GBRAP_128_3407 (protein)
# chain: AVEAARAYTRELMERIKTGDAATARAAVAELVARLETLDEAEREAALETFEELLPELSEEKLDVVADTLRELRPTVDPETAEYVIEMEVEAGEEILEKEE
# B27: GBRAP_80_6856 (protein)
# chain: AAAALAAALAALKALLPEVAEDAKEIVEIARELGVPDADIADLMEALAELAKVDPELAAELIKELLEELKEEKERGDAERALAVVRGYAGEALMLAEELE
# B28: GBRAP_52_6133 (protein)
# chain: MREELREKVLELLELVKAGKLEEAKKRLLKIAKELSDEELREFAREFAEVVRELPPEDLDAAAELLELAEEALEEAGRPEELISLLIGEGARALYEVEQR
# B29: GBRAP_52_6237 (protein)
# chain: AAARMAALARRIVELVRAGDEAGARALAEELAATLNEEELRLFIDEFAALAATQPAEDIDAVARAAEIIAEALEAAGWPDVLVDDLEARVAAALVAVEER
# Target: GABARAP, O95166
# Sequence (O95166 whole entry, the tested form may be a part): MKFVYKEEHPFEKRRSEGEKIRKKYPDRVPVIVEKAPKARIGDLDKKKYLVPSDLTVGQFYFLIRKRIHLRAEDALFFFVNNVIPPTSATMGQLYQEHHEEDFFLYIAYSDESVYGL
# Assay: median log2 fold change of GCK-ALFA target abundance (FLAG IP / Myc IP barcode read proportion) (log2 ratio); each designed protein is fused to an ALFA-tag nanobody in HEK293 cells to bring the named protein to FLAG-tagged glucokinase (GCK); Myc marks an untargeted standard; higher = target protein stabilised (more abundant)
# Settings: target protein: 3xFLAG-MCP-GCK-ALFA reporter; HEK293 landing pad (RPLP)
# Summary of the method: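 Sequencing of reverse-transcribed, amplified circular RNA barcodes from anti-FLAG and anti-Myc immunoprecipitates provided the readout for an ALFA-nanobody-fused binder library recombined into HEK293 landing-pad cells. Those cells were induced with 2 μg mL^−1 doxycycline, transfected with a plasmid expressing a FLAG-tagged target and a Myc-tagged standard, and lysed after 48 h. Target abundance is the per-binder median log2 ratio of FLAG to Myc barcode read proportions. Only barcodes at a proportion of ≥10^−7 in both replicates and binders with ≥3 barcodes per replicate were kept, with a 10^−6 pseudocount added before the two replicates were pooled.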
row,Binder,median log2 fold change
1,B1,0.249
2,B2,0.25
3,B3,0.145
4,B4,-0.159
5,B5,0.0824
6,B6,-0.0439
7,B7,-0.248
8,B8,-0.0866
9,B9,0.258
10,B10,0.369
11,B11,-0.141
12,B12,0.0665
13,B13,0.269
14,B14,0.131
15,B15,-0.353
16,B16,0.303
17,B17,-0.14
18,B18,-0.12
19,B19,0.0834
20,B20,0.169
21,B21,0.173
22,B22,0.228
23,B23,0.0936
24,B24,-0.409
25,B25,0.0549
26,B26,-0.149
27,B27,-0.242
28,B28,0.086
29,B29,0.0282
